Results from the supplement of paper PMC11417369.
± gives the standard deviation of the averaged measurements. The list shows a part of the results.

The sequences below were run on PfAP2-I AP2 domain 3 (GST-tagged) (assay: gcPBM binding intensity (ln(normalized median fluorescence intensity)); higher = stronger DNA binding).
In short: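 GST-fused DNA-binding domains of P. falciparum, expressed in E. coli, were applied at about 25 μg on average for 1 h to an Agilent 4 × 180k array of primer-extended double-stranded 36-bp intergenic genomic probes and negative controls. Binding intensity is the highest Masliner-normalised natural-log median intensity across replicate spots of either probe orientation, measured with Alexa488 anti-GST antibody and a 488 nm scan.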

Sequence | gcPBM binding intensity (ln)
CAATTTATTATATATGTGCACATATAATTTTACAAA | 9.59 ± 0.24
TAATTATTTTTATTGTTGCACTAGTAAAATTTTAAG [GTGCAC_site9946] | 9.78 ± 0.22
TACATTTTAATATAAGCATGCCTTTAGTTTTTTTCT [TGCATGCA_site829] | 7.6 ± 1
AATACAAATATATATGCACACACATATACATACATA [CACACA_site8677] | 9.22 ± 0.057
TATTTATTGTGATACTTATATTATTTCATGATTAAT [CACACA_negctrl_site738] | 7.5 ± 0.59
ACTTTATTATATATTTGTACATATATTTTTAATTTC [XGTACX_site4144] | 8.06 ± 0.62
GTATATATGTATGTATGTACTTATAAAGTTGCATAT [XGTACX_site5616] | 7.99 ± 0.23
TCTACATCTGTATATAAACACACAACAAAAATGCTT [CACACA_site9271] | 7.79 ± 0.54
AATGTGTAGACACGCACACACAAAAAAATATTTATA [CACACA_site7384] | 7.78 ± 0.5
TTCTTACACAAAAAAATGAAATCAATCAAAAAAAAA [CACACA_negctrl_site869] | 7.67 ± 0.55
TATATATTTCAATAATGTACATATAATATATATATT [XGTACX_site4124] | 7.69 ± 0.42
GAAAATATATTTAAGATGCACTTTAAAAATGTACTT | 8.99 ± 0.54
AAGTAATCATCATAAAGTACTAAATTATATTGTCAA [XGTACX_site5841] | 7.5 ± 0.54
AAATTATATATAAAATGTACATATGTAGGTAATTTT [XGTACX_site5047] | 8.27 ± 0.39
ACATTCTGATGGTGATTATTAATTATTACAAAAATT [CACACA_negctrl_site283] | 7.5 ± 0.44
AAATATTACTCCTCAAGTACACATAAAAAAAAAATA [XGTACX_site2085] | 7.93 ± 0.25
TTTTATTTTCGATGATGTACATTAAATTATACAGTA [XGTACX_site6053] | 7.64 ± 0.45
TATTTTTTTTGATATTGTACTTTTTTATTATTTTTT [XGTACX_site566] | 7.72 ± 0.47
TAAAAATTTAAGAAAACATGCATCTAACATATATAT [TGCATGCA_site342] | 7.53 ± 0.71
AATATACAAAATAAATAAAATATATATATATATATA [CACACA_negctrl_site216] | 9.46 ± 0.42
AAGTAAAATAAGTATACACACATAAATATGTAAATA [CACACA_site6467] | 7.51 ± 0.48
TTGTTTTCACCAAATACACACAAGCATACACCCCAT [CACACA_site2717] | 8.7 ± 0.33

Sequence | gcPBM binding intensity (ln)
ATACATAAATTTATACGTACATATATAGATACATAA [XGTACX_site675] | 8.2 ± 0.4
TTACATGCTAAAATTTGTACATATATGATAAATATT [XGTACX_site2648] | 7.75 ± 0.43
TTATAATATAAAAAATGTACATTAAAAAAAAAGATT [XGTACX_site8950] | 8.11 ± 0.65
AAGTATCAAAAATAAAGTACATATTTTGTAGGCAGG [XGTACX_site1463] | 8.3 ± 0.52
CAAAAAATATATTTTTGTACTTATGTTTTTATTTTG [XGTACX_site5230] | 7.94 ± 0.099
TAGTATAATATGAACACACACACACCCACAAAAAAA [CACACA_site2009] | 8.46 ± 0.14
TGGATATATGTAAAAATTGCAAGAAAGATAAAAGGA [CACACA_negctrl_site64] | 8.59 ± 0.69
TCTATGAATTAATATGCATGTAACGTATTTATACTT [TGCATGCA_site669] | 7.67 ± 0.83
ATTATGATATATATATGTACATATATATAATATAAT [XGTACX_site259] | 7.78 ± 0.43
TTTTTTTTTTTCCTTACACACATATTTCATTTTATA [CACACA_site747] | 8.25 ± 0.71
TTTTTATTTTTTAGTAGTACACACTTTTTGAACCTT [XGTACX_site1091] | 8.355 ± 0.064
TTTTATATATATTATACACACAAGGAAAAAAAAAAA [CACACA_site3677] | 8.19 ± 0.64
AAAAAAAAAAAAAGTGCACACTTTTAATATAAATAT [CACACA_site3314] | 10 ± 0.35
TATAAAAGGAAACACACACACATATATATATATATA [CACACA_site939] | 9.47 ± 0.38
AAATGGGAAATTTCATGTACTCATTTACCCTTATTA [XGTACX_site4740] | 7.45 ± 0.6
ATCTGACAAAAGTGTACACATATATATATATATATA [CACACA_site4814] | 9.52 ± 0.35
CACATAATGAAAAATACACACATGTATATTTATAAA [CACACA_site2736] | 7.57 ± 0.49
TTGAAGTATAATAAAGTGCAAAATTATAATGATCTT [GTGCAC_site9639] | 10.135 ± 0.007
TGTTGGTATGTGAATGCATGCATATAAGTCTATCTG [TGCATGCA_site780] | 8.04 ± 0.73
AAGGGAAAAAAAAAAGCACACATACGTAAATATATA [CACACA_site7960] | 8.04 ± 0.26
AAAAGATAAAATTATGCACACATACGAATAATTTTA [CACACA_site8497] | 9.47
TATTTCACACAGTATATATATATATATATATATATA [TGCATGCA_negctrl_site118] | 9.34 ± 0.99
